Measured values: PubChem BioAssay AID488969 (Vanderbilt High Throughput Screening Facility, 2010)
The full ranking holds about 110,000 compounds; the median of “z-score” is about -0.1, and the highest 2% start at about 2. Some of the results follow. The source made the active and inactive calls.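 How the source made its calls: active means z-score in the third read window above 3 or below -3; inactive means the rest.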

The molecules below were run against Metabotropic glutamate receptor 8 (Rattus norvegicus) (UniProt P70579) (assay: mGluR8 Gi/Go-coupled signaling modulation – cell-based, rat, thallium flux, HTS, primary screen (AID 488969)). Conditions: HEK293 rat mGluR8, GIRK (G protein-gated inwardly rectifying potassium channel) thallium flux, FluoZin2; at 10 µM; stronger effect = higher value; submaximal glutamate (EC20) added with thallium.
Chain of UniProt P70579 (P70579 whole entry, looked up): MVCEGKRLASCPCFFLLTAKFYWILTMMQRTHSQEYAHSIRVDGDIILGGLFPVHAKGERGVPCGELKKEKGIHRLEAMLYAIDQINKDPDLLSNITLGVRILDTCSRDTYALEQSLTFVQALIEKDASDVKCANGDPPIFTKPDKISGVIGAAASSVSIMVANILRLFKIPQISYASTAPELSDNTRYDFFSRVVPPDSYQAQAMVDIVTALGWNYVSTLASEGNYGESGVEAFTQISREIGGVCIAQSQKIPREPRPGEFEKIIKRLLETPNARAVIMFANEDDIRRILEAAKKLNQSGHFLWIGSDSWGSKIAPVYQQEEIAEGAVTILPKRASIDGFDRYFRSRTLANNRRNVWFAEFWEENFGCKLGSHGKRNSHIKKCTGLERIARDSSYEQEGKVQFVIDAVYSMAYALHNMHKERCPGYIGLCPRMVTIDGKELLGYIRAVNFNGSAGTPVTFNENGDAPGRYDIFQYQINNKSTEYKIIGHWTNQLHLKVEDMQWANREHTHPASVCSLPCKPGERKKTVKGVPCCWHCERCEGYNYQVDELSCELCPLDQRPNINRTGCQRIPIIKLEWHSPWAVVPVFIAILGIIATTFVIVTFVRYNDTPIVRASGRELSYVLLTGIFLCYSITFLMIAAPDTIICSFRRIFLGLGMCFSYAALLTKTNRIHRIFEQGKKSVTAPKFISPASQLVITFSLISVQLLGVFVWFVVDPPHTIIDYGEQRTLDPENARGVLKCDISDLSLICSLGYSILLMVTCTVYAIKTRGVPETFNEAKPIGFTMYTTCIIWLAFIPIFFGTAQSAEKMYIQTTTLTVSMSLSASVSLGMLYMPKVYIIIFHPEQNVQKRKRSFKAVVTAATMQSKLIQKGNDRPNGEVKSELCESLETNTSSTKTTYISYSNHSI

Structure (SMILES)	z-score
COC(=O)c1cn(-c2ccc(Cl)cc2)c(=O)c2ccccc12	-0.29
COc1cccc(Oc2ccc(N)cc2)c1	0.43
Cc1nc(CSc2nc3[nH]ncc3c(=O)n2-c2ccccc2)cs1	-0.154
O=S(=O)(c1ccccc1)c1nc(-c2ccco2)oc1Nc1ccccc1	-0.162
Cc1nc(SCCCSc2n[nH]c(C)n2)n[nH]1	-0.3
Cn1c2c(c(=O)n(C)c1=O)C(c1cccc(Br)c1)C1C(=O)c3ccccc3C1=N2 (stereo unspecified)	-0.379
CC(C)OC(=O)Cn1nnc2c(cnn2-c2ccccc2)c1=O	-1.39
Cc1cc(/C=N/n2cnnc2)c(C)n1-c1ccc(OCc2ccc(F)cc2)cc1	0.178
O=C(Cc1ccccc1[N+](=O)[O-])NCc1ccc(Cl)cc1Cl	0.0725
Cc1csc(SCC(=O)Nc2ccccn2)n1	0.464
COC(=O)[C@H](C)NC(=O)Nc1cccc(C)c1	-0.0554
Cc1cc(C(=O)N/N=C2\CCCc3ccccc32)c(C)o1	-0.271
CCOC(=O)c1c(NC(=O)CSc2nc3nc(C)cc(C)n3n2)sc(CC)c1C	-0.454
O=C(O)C1C2C=CC3(CN(Cc4ccccn4)C(=O)C13)O2 (stereo unspecified)	-0.175
Cc1ccc(OCCN2CCN(c3nc(NCc4ccco4)c4ccccc4n3)CC2)cc1	-0.461
O=C(COc1ccc2ccccc2c1)Nc1ccc(S(=O)(=O)N2CCCCCC2)cc1	0.11
COc1ccc(N2CCN(CC(=O)Nc3nc4c(s3)CC(C)CC4)CC2)cc1 (stereo unspecified)	-0.243
COc1ccc(S(=O)(=O)N/N=C(/C)c2ccc(Cl)cc2)cc1	-0.182
Cc1nc2ccccc2n1CC(O)COCC1CC=CCC1 (stereo unspecified)	-0.209
COc1ccc2c(c1)-c1c(sn(-c3ccccc3)c1=S)C(C)(C)N2	-0.192
CCOC(=O)c1cc2c(=O)n3ccccc3nc2n(Cc2ccccc2)c1=N	-0.66
CCN(CC)CCN1C(=O)c2ccccc2NC1c1ccccc1F (stereo unspecified)	0.6
Cc1cccc(OCCn2nc(C(=O)O)c3ccccc3c2=O)c1	-0.982

Structure (SMILES)	z-score
N#Cc1ccc(OCc2nnc(SCC(=O)c3ccccc3)n2-c2ccccc2)cc1	-0.0763
CCOC(=O)NC1(C(F)(F)F)NC(=O)N(c2ccc(F)cc2)C1=O (stereo unspecified)	0.301
COC(=O)c1cc(-c2c(C)oc3cc(O)ccc3c2=O)c(C)o1	-0.328
CCC(=O)OCC(=O)c1c(N)n(Cc2ccccc2)c(=O)n(C)c1=O	-0.115
CC(C)CN1C(=O)C(NC(=O)C2CC2)(C(F)(F)F)C2=C1CC(C)(C)CC2=O (stereo unspecified)	-0.146
CCCc1nc2oc(C(=O)OCC)c(N)c2c2c1COC(C)(C)C2	-0.0493
CCCCC(=O)NCc1ccc(F)cc1	-0.121
CSc1ccc(/C=C(\NC(=O)c2ccc(C)cc2)C(=O)Nc2cccc(C)c2)cc1	-0.0678
Cc1ccc(Oc2ccc(N)cc2)cc1	-1.41
CC(C)c1ccc(OCC(=O)N(c2ccccn2)C2CCCCC2)cc1	-0.397
COc1ccc(N2CCN(c3ncccc3C#N)CC2)cc1	0.247
O=C(Nc1ccc2c(c1)OCO2)c1cnn2cccnc12	0.317
CCOc1ncccc1C(=O)Nc1ccc(Cl)cc1	-1.03
CCOc1ccc(N(CC(=O)NC2CCCCCC2)S(=O)(=O)c2c(C)[nH]c(=O)[nH]c2=O)cc1	-0.543
CCOC(=O)COc1ccc(S(=O)(=O)Nc2cccc(SC)c2)cc1	-0.28
Cc1cc(C)n2cc(CSc3nnnn3C)nc2n1	0.244
Cc1csc(=N)n1-c1ccc(Cl)cc1	-0.246
COc1ccc(NC(=O)CSCc2ccccc2C)cc1	0.282
O=C(Cc1c[nH]c2ccccc12)NCc1ccc(Cl)cc1	0.348
CCCc1cc(=O)oc2cc(OCC(=O)NCc3cccs3)ccc12	-0.204
CCc1ccc(-c2nnn(Cc3nc4ccccc4s3)n2)cc1	-0.303
CC(C)Nc1nc(Oc2ccc(Cl)cc2Cl)cc(C(F)(F)F)n1	0.199
COc1ccc(OC)c(C2C(C(=O)Nc3cccnc3)=C(C)NC3=C2C(=O)CCC3)c1 (stereo unspecified)	-0.378

Structure (SMILES)	z-score
CC(C)COc1cc(=O)[nH]c(SCC(C)C)n1	-0.00995
CC(C)Cc1nnc(NC(=O)CSc2nc(=O)cc(N)n2-c2ccccc2)s1	0.667
CCOC(=O)c1ccc(NC(=O)Nc2ccc(F)cc2)cc1	-0.267
CCNC(=S)N/N=C/c1cccs1	-0.0561
CCCn1c(SCC(=O)NCCc2ccc(OC)c(OC)c2)nc2c1c(=O)n(C)c(=O)n2C	-0.0595
CC1OC2(C)OC(=N)C1(C#N)C(C#N)(C#N)C2c1ccccc1 (stereo unspecified)	-0.325
O=C(Nc1ccc(F)c(F)c1)c1cc(S(=O)(=O)N2CCN(c3ccccn3)CC2)ccc1F	1.13
Cc1c(Br)c(=O)oc2c(C)c(O)ccc12	-0.382
CCCNS(=O)(=O)c1ccc(OCC(=O)NCc2ccco2)cc1	0.0517
CCOC(=O)C(NCc1ccco1)(NC(=O)c1ccccc1)C(F)(F)F (stereo unspecified)	0.0176
Cc1ccc2nc(NC(=O)CCCc3nc4ccccc4s3)sc2c1	-0.0569
Oc1ccccc1C1=NCCNC(C(F)(F)C(F)F)=C1	-0.071
CCn1c(COc2ccc(C(C)C)cc2)nnc1SCC(=O)Nc1nccs1	-0.0977
O=C(NCc1ccncc1)/C(=N/O)c1ccccc1	1.14
Cc1cc(C)n(-c2ccc(C(=O)C(C#N)c3nc4ccccc4n3C)cc2)n1 (stereo unspecified)	1
O=C(CSc1nnnn1-c1ccccc1)c1cc2ccccc2oc1=O	0.0866
COc1ccc(OCc2nn3c(-c4ccco4)nnc3s2)cc1	-0.257
CCOC(=O)C1=C(Nc2ccc(C)cc2)CC(C)(O)C(C(=O)OCC)C1c1ccccc1 (stereo unspecified)	-0.0122
O=[N+]([O-])c1ccc(NCCCNS(=O)(=O)c2ccccc2)c(Cl)c1	-0.0392
N#C/C(=C\c1c[nH]c2ccccc12)C(=O)Nc1ncc(Cc2ccc(Cl)cc2Cl)s1	-0.72
O=C(COc1ccccc1)NCC(=O)N/N=C/c1ccco1	-0.0733
CCOc1cc(NC(=S)NC)c(OCC)cc1NC(=O)c1ccco1	-0.272
Cc1ccc(SCc2cc(=O)[nH]c(Nc3nc(C)c4ccc(C)cc4n3)n2)cc1	-0.344

Structure (SMILES)	z-score
Cc1ccccc1NS(=O)(=O)c1ccc(F)cc1	0.00114
C=CCn1c(SCC(=O)c2cc(C)n(C(C)COC)c2C)nc2sc(C)c(C)c2c1=O (stereo unspecified)	-0.0745
CC(C)c1ccc(OCC(=O)NC(=S)Nc2ccc3c4c(cccc24)CC3)cc1	1.27
CCOC(=O)c1sc(-c2ccc(F)cc2)cc1NC(=O)Nc1ccccc1OC	-0.333
O=c1[nH]cnc2c1sc1nc(-c3ccccc3)c3c(c12)CCCC3	0.204
CCNCC(O)COCC(O)CNCC (stereo unspecified)	1.73
N#Cc1cc2c(nc1SCC(=O)O)CCCC2	0.0732
CCOC(=O)C1=C(CC)Nc2ccccc2N=C1NC(=O)Nc1ccc(Cl)c(Cl)c1	active: 5.4
COc1ccc(NS(=O)(=O)c2ccc(NC(=S)NC(=O)/C=C/c3ccc(C)cc3)cc2)nn1	-0.224
CC1(C)Cc2c(C#N)c(NCCN3CCOCC3)nc(-c3ccco3)c2CO1	-0.654
CCCC/C(C)=N/NC(=O)CN(c1ccc(Br)cc1)S(=O)(=O)c1ccccc1	-0.0503
CCCCNC(=O)CSc1nc2ccsc2c(=O)n1C1CCN(C(=O)OCC)CC1	0.12
COc1ccc(N=Cc2c(O)[nH]c3ccccc23)cc1OC	-0.383
O=C(O)CCSc1nnc(-c2ccncc2)n1-c1ccccc1	-0.527
CCCCn1c(CN(Cc2ccccc2)Cc2ccccc2)nc2c1c(=O)n(C)c(=O)n2C	active: 3.38
CCC(Sc1nncn1C)C(=O)Nc1nnc(-c2ccc(Cl)cc2)s1 (stereo unspecified)	-0.564
COC(=O)c1ccccc1NC(=O)c1cccc(NC(=O)c2ccc(Br)o2)c1C	-0.654
CC(=O)c1c(C)[nH]c(C(=O)OCc2nnc(-c3ccccc3)o2)c1C	0.066
O=c1oc2cc(Oc3c([N+](=O)[O-])cc(C(F)(F)F)cc3[N+](=O)[O-])ccc2c2c1CCCC2	-0.476
CCOc1ccccc1NC1=C(Cl)C(=O)N(c2ccc(OC)cc2)C1=O	-0.367
c1cnc2ccc(C(c3nnnn3C3CCCC3)N3CCN4CCCC4C3)cc2c1 (stereo unspecified)	-1.43
COc1cc(S(=O)(=O)N(Cc2ccccn2)Cc2ccccc2Cl)ccc1-n1cnnn1	-1.24
CC1CCCC(C)N1NC(=O)c1ccc(Cl)c(S(N)(=O)=O)c1 (stereo unspecified)	-0.158

Structure (SMILES)	z-score
Fc1ccc(NC(=S)N/N=C/c2cccc(Br)c2)c(F)c1	active: 3.61
COC(=O)N/N=C(C)\C=C\c1ccco1	0.602
COC(=O)Cc1nnc(NC(=O)C(C)C)s1	0.0291
Cc1ccc(Nc2nc(N)c([N+](=O)[O-])c(NCc3ccco3)n2)cc1	-0.288
c1ccc(OCCOCCSc2ncccn2)cc1	0.944
O=C(CCc1ccccc1)Nc1cccc(NC(=O)CCc2ccccc2)c1	-0.164
Cc1cc(C)c(OCC(=O)N/N=C/c2ccc3c(c2)OCO3)c(C)c1	-0.033
Cc1c(NC(=O)CN2C(=O)NC(C)(c3ccccc3)C2=O)c(=O)n(-c2ccccc2)n1C (stereo unspecified)	0.245
CC1(C)CC(=O)C2=C(C1)N(c1ccc(F)cc1)C(N)=C(C#N)C2c1cccs1 (stereo unspecified)	-0.505
Cc1ccc(Cc2cnc(NC(=O)/C(C#N)=C/c3ccc(-c4ccc([N+](=O)[O-])cc4)o3)s2)cc1	-0.0684
CC(=O)c1ccc(NC(=O)c2cc(Cl)sc2Cl)cc1	-0.102
CC(C)CNC(=O)C1CCN(Cc2ccc(OCc3ccccc3)cc2)CC1	0.443
CC(C)=CCCC(C)CN1CCC(O)CC1 (stereo unspecified)	-0.325
CC1(NC(=O)N2CCOCC2)CCS(=O)(=O)C1 (stereo unspecified)	-0.187
Cc1nc2ccc(NC(=O)c3nn(C(C)C)c(=O)c4ccccc34)cc2s1	-0.168
COc1ccccc1C1C(C(=O)c2cc3ccccc3o2)=C(O)C(=O)N1CCN(C)C (stereo unspecified)	-0.748
CCOC(=O)C(NC(=O)c1ccccc1)(Nc1cc(C)on1)C(F)(F)F (stereo unspecified)	-0.179
O=c1oc(Nc2ccc(F)cc2)nc2ccccc12	-0.728
CCN(C(C)=O)c1nnc(CSc2nc3ccccc3s2)s1	-0.505
